Experimental data taken from paper PMC3599065.
No constants are given. Whether binding was seen depends on the method and setting. In cells and extracts the contact can be indirect. Some entries that bind do so weakly or less than the wild type.

Protein sequences, listed by entry. Tags and fused reporters are not part of them. Residues count along the entry.
UniProt P05067, residues 724-770: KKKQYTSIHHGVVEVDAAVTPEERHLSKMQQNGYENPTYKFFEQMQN

Target: T1, TAP-JIP1-WT (in HEK293T) (mouse) (UniProt Q9WVI9)
T1 sequence: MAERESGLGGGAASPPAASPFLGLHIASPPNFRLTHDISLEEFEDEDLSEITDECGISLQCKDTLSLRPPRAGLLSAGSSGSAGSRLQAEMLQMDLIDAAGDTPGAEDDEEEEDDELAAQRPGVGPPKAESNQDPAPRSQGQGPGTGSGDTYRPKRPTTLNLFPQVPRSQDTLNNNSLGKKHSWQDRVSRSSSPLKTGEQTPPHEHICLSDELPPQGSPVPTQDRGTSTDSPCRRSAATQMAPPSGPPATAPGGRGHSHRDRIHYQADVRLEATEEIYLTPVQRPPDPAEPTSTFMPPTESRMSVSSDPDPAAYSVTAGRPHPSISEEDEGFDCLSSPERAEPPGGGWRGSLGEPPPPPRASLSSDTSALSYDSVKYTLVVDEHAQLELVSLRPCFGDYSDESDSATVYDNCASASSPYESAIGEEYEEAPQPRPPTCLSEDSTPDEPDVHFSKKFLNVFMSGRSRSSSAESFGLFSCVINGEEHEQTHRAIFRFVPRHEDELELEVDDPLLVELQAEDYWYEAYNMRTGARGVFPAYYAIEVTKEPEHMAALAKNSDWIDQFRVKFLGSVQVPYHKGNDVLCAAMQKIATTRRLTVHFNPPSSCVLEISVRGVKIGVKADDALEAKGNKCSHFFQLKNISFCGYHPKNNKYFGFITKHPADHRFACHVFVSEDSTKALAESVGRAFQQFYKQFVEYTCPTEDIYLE
Test: pull-down; lysates of HEK293T cells expressing a TAP-tagged JIP1 or JIP3 construct with V5-KLC, V5-KHC and a GFP-tagged partner (GFP-JIP3, GFP-JIP1, GFP-DLK or GFP-APP-C constructs), precipitated with streptavidin sepharose, western blot

binding: binds
Substance: GFP-APP-C (from UniProt P05067-4 649-695) (domain or fragment)
